Measured values from patent US11779649B2, “Antibodies to PMEL17 and conjugates thereof” (Novartis AG, priority 2018, dated 2023).

Tests used:
[1] = tested on: 92.1 uveal melanoma; assay: Resazurin-based viability assay, 92.1 uveal melanoma cells; assay type: cell-based; details: 96 or 120 hours, Table 9
Experimental: (§1) Following drug treatment for 96 or 120 hours, cell viability and proliferation were determined using a resazurin-based viability assay. Briefly, cells were incubated with a resazurin-based solution and color change was detected by absorbance with a spectrophotometer and used as a readout of cell viability. Data presented as mean of 3 independent replicates and relative to PBS-treated cells (control).
Following drug treatment for 96 or 120 hours, cell viability and proliferation were determined using a resazurin-based viability assay. Briefly, cells were incubated with a resazurin-based solution and color change was detected by absorbance with a spectrophotometer and used as a readout of cell viability. Data presented as mean of 3 independent replicates and relative to PBS-treated cells (control) (FIG. 6).
Following drug treatment for 96 or 120 hours, cell viability and proliferation were determined using a resazurin-based viability assay. Data presented as mean of 3 independent replicates and relative to PBS-treated cells (control) (FIG. 8).
as §1

[2] = tested on: MP41; assay: Resazurin-based viability assay, MP41 cells; assay type: cell-based; details: 96 or 120 hours, Table 9
Experimental: as §1

[3] = tested on: 92.1 cells; assay: Annexin V flow cytometry apoptosis assay, 92.1 cells; assay type: cell-based; details: FIG. 7
Experimental: 92.1 and MIAPACA cells were seeded in 96-well plates (5000 cells per well) and treated with increasing concentrations of Compound (A1), Compound (A2), and a fixed dose of Staurosporine (100 nM, positive control) as indicated. Following drug treatment for 96, cells were subjected to fluorescence-activated flow cytometry using an Annexin V antibody conjugated to a fluorescent dye. Data presented as mean of 3 independent replicates.
92.1 cells were seeded in 96-well plates (5000 cells per well) and treated with increasing concentrations of Compound (A1), 3207-(B1) (Isotype control), G4-(B1), and G1-(B1) as indicated. Following drug treatment for 96, cells were subjected to fluorescence-activated flow cytometry using an Annexin V antibody conjugated to a fluorescent dye. Data presented as mean of 3 independent replicates.

[4] = tested on: GNAQ/11; assay: IP1 levels by TR-FRET in 92.1 uveal melanoma cells; assay type: cell-based; details: 92.1 cells, 2 days, FIG. 9
Experimental: 92.1 uveal melanoma were treated with increasing concentrations of Compound (A1) or Compound (A2) as indicated. Following drug treatment overnight, cells were processed for determination of IP1 levels using TR-FRET (time-resolved fluorescent resonance energy transfer) or protein levels by western-blotting.
92.1 uveal melanoma were treated with DMSO, Compound (A1) (8 nM) and increasing concentrations of Isotype-(B1), anti-PMEL17-(B1) and anti-PMEL17-(B2) ADCs as indicated. Following drug treatment for 2 days, cells were processed for determination of IP1 levels using TR-FRET (time-resolved fluorescent resonance energy transfer). IP1 levels (nM) are presented as mean of 3 independent replicates.

[5] = tested on: 92.1-luciferase subcutaneous xenografts; assay: 92.1-luciferase subcutaneous xenograft tumor growth in female nude mice; assay type: in vivo
Experimental: Treatment (single dose i.v. injection) was performed 17 days post tumor inoculation. Values are mean±SEM; sample size, (n=5-12 mice per group). Initial tumor volume at day 0 was approximately 200-250 mm^3.
Treatments (single dose i.v. injection) were performed 17 days post tumor inoculation. Values represent mean±SEM; sample size, (n=5-6 mice per group). Initial tumor volume at day 0 was approximately 300-325 mm^3. (FIG. 16).
Treatment (single dose i.v. injection) was performed 14-17 days post tumor inoculation. Values are mean±SEM; sample size, (n=5-12 mice per group). Initial tumor volume at day 0 was approximately 200-250 mm3.

[6] = Body weight change of female naive nude mice; assay type: in vivo; details: single dose i.v., 14 days, FIG. 12B
Experimental: Body weight change of female naive nude mice after treatment with G1-(B1) was monitored at the indicated doses. Treatments (single dose i.v. injection) were performed at day 0. Values are mean±SEM; sample size, (n=4 mice per group). Initial body weight at day 0 was approximately 24 g. Body weight was measured every day for 14 days following drug treatment.

[7] = tested on: 92.1-luciferase subcutaneous xenografts; assay: Immunohistochemical analysis of tumour tissue from 92.1-luciferase subcutaneous xenografts; assay type: in vivo, mice; details: 7.5 mg/kg, FIG. 12C
Experimental: Immunohistochemical analysis of tumour tissue from 92.1-luciferase subcutaneous xenografts treated with vehicle, 3207-(B1) (7.5 mg/kg body weight), or G1-(B1) (7.5 mg/kg body weight) was performed. Tumors were fixed in 10% (vol/vol) neutral buffered formalin for 24 h at room temperature, then rinsed in PBS, processed for dehydration, cleared, and embedded in paraffin. 3 μm sections were prepared and processed for hematoxylin and eosin (H&E) staining and for immunohistochemistry. Immunohistochemical staining was performed on formalin-fixed, paraffin-embedded tissue sections using a Bond-RX (Leica) fully automated system for anti-hIgG (ThermoFischer) and anti-gp100 (PMEL17) (clone EP4863; Abcam) staining, and a Discovery XT (Ventana Medical System) fully automated system for anti-Ki67 (clone Sp6; NeoMarkers), anti-pERK1/2 (clone D13.14.4E; Cell Signaling), anti-MITF (Sigma) and anti-cleaved Caspase-3 (Cell Signaling) staining.

[8] = tested on: ADP-induced platelet aggregation; assay: Whole blood platelet aggregation of naive mice after ADP activation; assay type: in vivo; details: ADP 6.5 uM
Experimental: Whole blood platelet aggregation of naive mice treated with vehicle, G1-(B1) (20 mg/kg body weight), or Compound (A1) (0.01, 0.03, 0.1, and 0.3 mg/kg body weight) was tested. Animals were euthanized 5 min post single i.v. dosing and blood was collected via vena cava. After 1 h, whole blood aggregation was measured following platelet activation with ADP at 6.5 uM (FIG. 12D).
Whole blood platelet aggregation of naive mice treated with vehicle and G1-(B1) (7.5 and 30 mg/kg body weight) at 24 h or 7 d post dosing was measured. Mice were euthanized 24 h or 7 d post single i.v. dosing and blood was collected via vena cava. After 1 h, whole blood aggregation was measured following platelet activation with ADP at 6.5 uM.

[9] = tested on: 92.1-luciferase cells; assay: Liver and lung metastasis mouse model of uveal melanoma (92.1-luciferase i.v., bioluminescence); assay type: in vivo, NOD-Scid mice
Experimental: Female NOD-Scid mice were intravenously injected with 92.1-luciferase cells (approximately 2 million cells per animal) and bioluminescence was measured twice a week to evaluate tumor formation. After 45 days all injected mice developed liver and lung metastases as detected by bioluminescence signal (BLI) (FIGS. 13A and 13B). Tumor bearing mice were treated with a single i.v. injection of G1-(B1) (20 mg/kg body weight) and bioluminescence was monitored over time as a readout of tumor progression. Individual pictures from each mice are presented at day 45 following i.v. injection of 92.1-luciferase cells (just before the initiation of treatment) and 12 days post treatment (FIGS. 13A and 13B); sample size, (n=6 mice per group). Initial BLI for liver metastasis at day 0 was approximately 2.8*10^9 p/sec/cm^2. Lung tumors (bioluminescence signal) in FIG. 13B are indicated by a black arrow.
Corresponding body weight modulation (% vs day 15) was assessed 2-3 times per week prior and post treatment with G1-(B1) 20 mg/kg (grey circles). Values are mean±SEM; sample size, (n=5-6 mice per group). Initial body weight at day 15 was approximately 21 g.

[10] = PK of G1-(B1) ADCs in nude mice; assay type: in vivo
Source text: Clearance, volume of distribution and half-life are in the typical range for ADCs.

[11] = Free payload concentrations in tumor bearing mice; assay type: in vivo; details: targeted ADC vs isotype control 3207-(B1), FIG. 14B
Experimental: In tumor bearing mice, free payload concentrations were measured after dosing either target binding G1-(B1) or isotype control 3207-(B1). A clear (>4-fold) increase in tumor delivery of Compound (A1) payload could be observed using the targeted ADC (FIG. 14B). The conversion of Compound (A1) (open circles) into its ring-opened form of Compound (A1) having the structure of Compound (A4)

B1: G1-(B1) (conjugate)
heavy: QVQLVQSGAEVKKPGSSVKVSCKASGGTFSDYAITWVRQAPGQGLEWMGGIIPIFGTANYAQKFQGRVTITADESTSTAYMELSSLRSEDTAVYYCAREGGLLTDISYSRYWFAYWGQGTLVTVSSASTKGPSVFPLAPSSKSTSGGTAALGCLVKDYFPCPVTVSWNSGALTSGVHTFPAVLQSSGLYSLSSVVTVPSSSLGTQTYICNVNHKPSNTKVDKRV[in this place human IgG1 Fc with S375C (EU numbers)]
light: DIELTQPPSVSVSPGQTASITCSGDALRDKFVYWYQQKPGQAPVLVIYDDNNRPSGIPERFSGSNSGNTATLTISGTQAEDEADYYCQSWDHSYSLVVFGGGTKLTVLGQPKAAPSVTLFPPSSEELQANKATLVCLISDFYPGAVTVAWKADSSPVKAGVETTTPSKQSNNKYAASSYLSLTPEQWKSHRSYSCQVTHEGSTVEKTVAPTECS
GI50 [1]: 0.722 nM | GI50 [2]: 0.563 nM | apoptosis (Annexin V) [3]: induced apoptosis in 92.1 cells in a dose-dependent manner | GNAQ/11 inhibition (IP1 levels) [4]: inhibit mutant GNAQ and GNA11 in a dose-dependent manner | antitumor activity ([5]; 7.5 mg/kg single dose i.v., FIG. 16): comparable antitumor activity | tumor growth ([5]; single i.v. injection, FIG. 12A): inhibited tumor growth in a dose-dependent manner | body weight [6]: No body weight loss was observed for up to 14 days after treatment | MITF and PMEL17 levels (IHC) [7]: No changes were observed in MITF and PMEL17 levels | pERK and Ki67 levels (IHC) [7]: reduced levels of pERK and Ki67 | cell apoptosis (cleaved Caspase-3 IHC) ([7]; compared to vehicle and 3207-(B1)): induced cell apoptosis | ADP-induced platelet aggregation in vivo ([8]; 20 mg/kg, 5 min post single i.v. dosing, FIG. 12D): did not have any significant effect on ADP-induced platelet aggregation in vivo | platelet aggregation inhibition ([8]; 7.5 and 30 mg/kg, 24 h or 7 d post dosing, FIG. 12E): No platelet aggregation inhibition was observed | body weight ([9]; 20 mg/kg, FIG. 13C): body weight restoration | liver and lung metastases (bioluminescence) ([9]; single i.v. dose of 20 mg/kg, 12 days post treatment): induced regression of liver and lung metastases | AUC extrap (%) ([10]; 7.5 mg/kg): 25 ± 9% | CL ([10]; 7.5 mg/kg): 22 ± 7.2 mL/day/kg | Vz ([10]; 7.5 mg/kg): 0.21 ± 0.01 L/kg | app. telim ([10]; 7.5 mg/kg): 176 ± 37 h | AUClast (ug/mL*h) dose normaliz. ([10]; 7.5 mg/kg, dose normalised): 904 µg·h/mL | AUC extrap (%) ([10]; 30 mg/kg): 38 ± 3% | CL ([10]; 30 mg/kg): 9.6 ± 1.2 mL/day/kg | Vz ([10]; 30 mg/kg): 0.15 ± 0.01 L/kg | app. telim ([10]; 30 mg/kg): 259 ± 25 h | exposure with dose ([10]; total IgG levels, FIG. 14A): slightly over-proportional increase of exposure with dose between 7.5 and 30 mg/kg | increase in tumor delivery of Compound (A1) payload [11]: > 4 fold
